Here are results for 44 sequences from the supplement of paper PMC11417369.

± gives the standard deviation of the averaged measurements. This is one part of the list.

In this assay the test system is PfAP2-EXP AP2 domain (GST-tagged). In words: gcPBM binding intensity (ln(normalized median fluorescence intensity)); higher = stronger DNA binding. In short, it runs like this: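 After 1 h on an Agilent 4 × 180k array of primer-extended double-stranded 36-bp intergenic genomic probes and negative controls, bound GST-tagged P. falciparum DNA-binding domains were detected with Alexa488 anti-GST antibody and scanned at 488 nm. The domains had been expressed in E. coli, and binding took place in 1× PBS with 1% milk, 0.2 mg/ml BSA, 0.5% salmon testes DNA and 0.03% Triton X-100. Binding intensity is the highest Masliner-normalised natural-log median intensity across replicate spots of either probe orientation.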
For “AAAAAAAACACGCGCACACACACACCCACCCACCGA [CACACA_site2206]”, the “gcPBM binding intensity (ln)” value came to 8.98 ± 0.54.

As for “GAAATATTTGTAAAAACATGCATGGTACTTTTAAAA [TGCATGCA_site6]”, the “gcPBM binding intensity (ln)” value was determined as 9.01 ± 0.47.

For “TACATACTAAAAAAATGTACTTGTATTGTTTTTTTA [XGTACX_site8357]”, the “gcPBM binding intensity (ln)” value turned out to be 8.31 ± 0.29.

Regarding “ACATAAGAATTTTTATGTACTCATAATATTTTATAT [XGTACX_site2398]”, the “gcPBM binding intensity (ln)” value came to 8.15 ± 0.28.

On to “TTATTTAACGTATTCTCACACATATATATATATAAT [CACACA_site5226]”, for which the “gcPBM binding intensity (ln)” value amounted to 8.64 ± 0.42.

In the case of “TATATATATATATACACATGCAAAAATTTTTAATTT [TGCATGCA_site82]”, the “gcPBM binding intensity (ln)” value came out at 10.2 ± 0.35.

Turning to “TTTCTATATGGATTTGCACACATAAAAATGCTTATA [CACACA_site8751]”, the “gcPBM binding intensity (ln)” value came to 8.49 ± 0.23.

As to “TCTTTAATGATGTGTACACAAGAAAACATTGTTAAG [CACACA_site5299]”, the “gcPBM binding intensity (ln)” value is 8.98 ± 0.41.

On to “TAGAAGCATCATTTTACACACATGCAAATGTAAAAT [CACACA_site1893]”, for which the “gcPBM binding intensity (ln)” value was 8.68 ± 0.42.

Consider “AAAAATAAGAGCGTAGCACACACGCATTTTATAAAT [CACACA_site8147]”, for which the “gcPBM binding intensity (ln)” value is 8.64 ± 0.47.

Take “TTATATTAATAATAAAGTACAAAAAATCATATATAA [XGTACX_site799]”: the “gcPBM binding intensity (ln)” value was determined as 8.53 ± 0.33.

In the case of “TTATTGAACTTTTATAAAACCTGTATTATTATCTCT [CACACA_negctrl_site767]”, the “gcPBM binding intensity (ln)” value is 8.51 ± 0.41.

For “TCCAGGCTACACTCTAGTACTCGTAGGGTTATGAGA [XGTACX_site4945]”, the “gcPBM binding intensity (ln)” value amounted to 8.49 ± 0.46.

“TATTTCTTATTACATACACACATATACATATATGAC [CACACA_site3201]”: the “gcPBM binding intensity (ln)” value was 8.76 ± 0.54.

As to “ATATATATATATATATGTACATATGTTAGGATCAAA [XGTACX_site8626]”, the “gcPBM binding intensity (ln)” value stood at 10.2 ± 0.33.

With “ATGACATATAAATATACACACATACGTAAGTATATT [CACACA_site5058]”, the “gcPBM binding intensity (ln)” value amounted to 8.19 ± 0.44.

Turning to “AATGGTCTTTTCAACACACGTACATAAAAATATTAT [CACACA_site2571]”, the “gcPBM binding intensity (ln)” value amounted to 8.77 ± 0.23.

For “GTGGAATAATATATATGTACATATTTAAAATATTTA [XGTACX_site3499]”, the “gcPBM binding intensity (ln)” value was 8.64 ± 0.27.

Consider “TAAAAGTATATATATACACACATAAATATATCTGTA [CACACA_site4537]”, for which the “gcPBM binding intensity (ln)” value was found to be 8.34 ± 0.35.

Consider “TGACAACATAGAGGGGCACACACATATATACATAAA [CACACA_site8550]”, for which the “gcPBM binding intensity (ln)” value was 8.73 ± 0.52.

Consider “ATTTTTTTACAAAAATGTACACATGAAATATGTAAT [XGTACX_site1372]”, for which the “gcPBM binding intensity (ln)” value was found to be 8.39 ± 0.29.

On to “TATTATTTTAGAATGCGTACTTATAAAATATTTTAT [XGTACX_site867]”, for which the “gcPBM binding intensity (ln)” value stood at 8.59 ± 0.35.

On to “TTAAATTATTAGAGAGTGCATTATATATATTATACA [GTGCAC_site9711]”, for which the “gcPBM binding intensity (ln)” value was 8.53 ± 0.19.

On to “TACTGTTATAAATGTGGTACTAATATTATACATATA [XGTACX_site5116]”, for which the “gcPBM binding intensity (ln)” value was 8.45 ± 0.35.

Take “GTGTGATGGTCCAATATACACACTTAAAAAAAAAAA [CACACA_site2426]”: the “gcPBM binding intensity (ln)” value is 8.29 ± 0.42.

With “AATTGTTAATGGTACGAACACACATATAAAGATGCA [CACACA_site2043]”, the “gcPBM binding intensity (ln)” value came out at 8.99 ± 0.38.

Turning to “AGAATTAAAATAATACGTACACACATGTATAATACA [XGTACX_site1878]”, the “gcPBM binding intensity (ln)” value was 8.71 ± 0.33.

In the case of “ATTATATCTATAATATGTACATATTATAATATATAT [XGTACX_site3211]”, the “gcPBM binding intensity (ln)” value amounted to 8.52 ± 0.28.

Regarding “TGTACAATATAAGGAGCACACAAAAATGGATAAATA [CACACA_site8216]”, the “gcPBM binding intensity (ln)” value amounted to 9.04 ± 0.46.

Regarding ATTTTATTTTATTAAGTGCAAAAAAAAAAAAAGAAA, the “gcPBM binding intensity (ln)” value worked out at 8.755 ± 0.035.

On to “ACCTCTCATATGTTATAAACAAAATGAAAATTTCAT [XGTACX_negctrl_site303]”, for which the “gcPBM binding intensity (ln)” value was determined as 8.88 ± 0.41.

In the case of “ATATGGCATAAAACATGTACATGTTCATAAATATAT [XGTACX_site1924]”, the “gcPBM binding intensity (ln)” value came out at 8.82 ± 0.36.

Take “AAAAAAAAAAAAAAAAGTACATGCCATATATTTTCA [XGTACX_site4580]”: the “gcPBM binding intensity (ln)” value came to 8.7 ± 0.11.

As for “TTTTTTATCTAATATTTTATAATTTTCATAAATTTG [GTGCAC_negctrl_site534]”, the “gcPBM binding intensity (ln)” value turned out to be 8.12 ± 0.21.

As for “GCTAGTTCATAAAATTGTACAAAAAAAAAAAAAAAA [XGTACX_site2223]”, the “gcPBM binding intensity (ln)” value is 8.23 ± 0.28.

In the case of “TAAATAATGTTAAACACACATACCGATATATAATTA [CACACA_site2711]”, the “gcPBM binding intensity (ln)” value came out at 8.48 ± 0.47.

For the sequence “AAATAATCTATACACAACGTATAAGAATAATATATG [TGCATGCA_negctrl_site422]”, the “gcPBM binding intensity (ln)” value was determined as 8.55 ± 0.33.

As for “AATAGAAACATTTTACATGTATATATAATTTTTTTT [XGTACX_negctrl_site190]”, the “gcPBM binding intensity (ln)” value amounted to 8.2 ± 0.3.

As to “TATACAGACAGACACACACACATATATATATATATA [CACACA_site1734]”, the “gcPBM binding intensity (ln)” value stood at 10.1 ± 0.42.

With “TATATATAAGAAAAAAGTACAGATATATATATATTC [XGTACX_site4788]”, the “gcPBM binding intensity (ln)” value worked out at 8.82 ± 0.37.

Regarding “AAATTTTCACTTCAAAAACACACGTATTTTTTTCCT [CACACA_site3813]”, the “gcPBM binding intensity (ln)” value worked out at 8.73 ± 0.47.

On to “TGTTATATTATAACTACACACGTATTATGTTATATC [CACACA_site839]”, for which the “gcPBM binding intensity (ln)” value came out at 8.4 ± 0.48.

As to “TTTTAAGAAAAAAAATGTACACATGAAAATAGTGAA [XGTACX_site5898]”, the “gcPBM binding intensity (ln)” value worked out at 8.56 ± 0.38.

“CCTAAATAATATCTATCACACACGCATATATACATA [CACACA_site8838]”: the “gcPBM binding intensity (ln)” value came out at 8.49 ± 0.48.
